In all, about 33,000 sequences were measured (“E-score (-0.5 to 0.5)”: median about -0.041, highest 2% from about 0.37 on). The list shows a part of the results.
What follows are sequences tested against T1, Ecm22 (UniProt Q05958) (assay: PBM E-score (8-mer binding enrichment) (E-score (-0.5 to 0.5)); higher = stronger / more preferred TF binding; most listed sequences are background and not binding sites). Conditions: protein concentration: 200 nM; construct: GST-full length.
T1 sequence: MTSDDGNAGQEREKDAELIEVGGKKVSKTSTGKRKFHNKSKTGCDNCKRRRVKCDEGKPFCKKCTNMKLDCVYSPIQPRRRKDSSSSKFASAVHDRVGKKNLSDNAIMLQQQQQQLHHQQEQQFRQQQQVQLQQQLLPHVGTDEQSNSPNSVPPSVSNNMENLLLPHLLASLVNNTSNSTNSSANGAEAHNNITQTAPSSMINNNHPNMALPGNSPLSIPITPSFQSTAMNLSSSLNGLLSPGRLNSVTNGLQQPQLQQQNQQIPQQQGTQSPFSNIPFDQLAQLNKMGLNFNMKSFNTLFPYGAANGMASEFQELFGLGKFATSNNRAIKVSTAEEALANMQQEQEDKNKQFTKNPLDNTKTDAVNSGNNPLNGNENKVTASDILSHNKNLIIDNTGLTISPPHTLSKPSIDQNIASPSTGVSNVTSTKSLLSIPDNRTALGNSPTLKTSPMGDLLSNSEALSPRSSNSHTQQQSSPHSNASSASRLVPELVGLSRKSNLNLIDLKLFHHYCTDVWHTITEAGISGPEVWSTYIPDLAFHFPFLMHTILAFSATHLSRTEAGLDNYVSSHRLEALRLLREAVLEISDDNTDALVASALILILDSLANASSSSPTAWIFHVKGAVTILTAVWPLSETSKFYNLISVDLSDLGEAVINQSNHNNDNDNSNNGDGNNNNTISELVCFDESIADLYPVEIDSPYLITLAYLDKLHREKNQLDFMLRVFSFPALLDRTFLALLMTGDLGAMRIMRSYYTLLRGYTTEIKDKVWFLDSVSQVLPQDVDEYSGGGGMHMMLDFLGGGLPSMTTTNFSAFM
Method in brief: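 Masliner-normalised scans of fluorescent anti-GST signal were the basis for scoring. That signal came from GST-tagged yeast transcription factors applied at about 100-200 nM to double-stranded universal all-10-mer Agilent arrays on fresh or once-stripped slides. Each ungapped eight-base word, pooled with its reverse complement, received an E-score from the Universal PBM Analysis Suite.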

Sequence	PBM E-score
CGACAAAG	0.192
ATTCCTGC	-0.0241
CGCGAACC	0.231
CTGTTCTC	0.106
CCCTCGGC	-0.0239
GAGTCTCC	-0.133
CAAATCTA	-0.0105
GCAAACAC	0.0178
GAACCCGA	0.147
CAGAACGC	-0.0854
GCACTACC	0.00349
ACAGTCGA	-0.111
AAGCAGCG	0.00801
GCAATCCC	-0.0541
AGGTAACA	-0.00283
GAATGAAC	0.177
AAAAGAAA	0.0717
CCTTAAAC	0.119
CGGACCGA	0.331
ACCTCACA	-0.106
CACCGCGG	0.0948
ACCTCGAG	0.134
CATTATTA	0.0693
GCAAGGTA	-0.0994
CAGCCCCA	-0.153

Sequence	PBM E-score
GGATACAA	0.0413
CCTATGAA	-0.148
TGGGGACA	-0.0728
GAGTCTCA	-0.151
AGACATTA	-0.134
ATTGTGAA	-0.0321
CAAAGGCG	0.00346
ACTTACTA	-0.0247
CTTTCTAA	-0.213
ATACCCCA	-0.103
ATAATCTG	-0.213
AGGATCAA	-0.0775
CAAGATCA	-0.0888
ACCCCACC	0.122
AAATCCCT	-0.244
CGACTCAG	-0.016
CGAGAGAG	0.257
CGAACGAG	0.428
GTCGTTGA	0.259
CCATTAGG	-0.264
GGCGGCCC	-0.182
AACATTCA	-0.0167
AATACGAC	0.429
AATCTGGA	-0.119
AGCGGCTC	0.105

Sequence	PBM E-score
GGCCATAA	-0.187
AATACATC	0.0855
CCGGATAC	0.0706
GATTAAAA	-0.0368
CACATGGC	0.0232
AGAAGACC	-0.147
CGTAACTC	0.264
AGGTTCAT	-0.148
CATACCAC	0.0598
CCGCGTGC	-0.089
AGTCGCGA	0.286
TAGTGTGA	0.0564
AGCTATCC	-0.157
CTGTACTA	-0.0527
ACAAATGG	0.00688
CTACACGC	-0.223
AAGTTACA	-0.0991
CCTGCCGA	-0.114
GTACACTA	0.00781
TCCATAGA	-0.225
CTATGGCC	-0.282
CCCGAGGC	-0.151
ACGGGTTA	0.217
CCAACTCG	0.108
ATGCCAAG	-0.171

Sequence	PBM E-score
AGCACGGA	-0.117
CCCTGGAA	-0.179
ACGTATCC	0.0342
TGGATAAA	-0.058
ACACACCC	0.133
CGTTGTCC	0.0485
CCCGGGAC	-0.168
CTTGTGTC	-0.0755
TCACAAAA	-0.069
GGTTCTAA	-0.0461
CATTACAC	0.149
CGATATGC	0.188
CCTCTTTC	-0.118
GTCCACCA	-0.285
GCGTGAGC	0.0632
CAGTTTGG	-0.162
AGTAGTCC	-0.132
AATTCTTC	0.127
CTCTAGTA	-0.162
ACCACGAT	0.0854
GCTCGTGA	0.171
CTCTAACA	-0.0398
AAGTGGCG	0.0989
CTGAAGGA	-0.271
CATTCTGG	-0.203

Sequence	PBM E-score
AATGAATG	-0.121
CTAAAACA	-0.128
AGACTCAA	-0.127
CTTAGAAC	-0.0274
CATTAGAG	-0.0844
CCTCGGTC	0.298
ACCCACCA	-0.146
CATCCGGA	-0.18
ATGTCGAA	-0.0588
GGGGCGGA	-0.199
TACACTCA	0.0127
AATTAAAA	0.0435
CATACACA	-0.126
ACGTTTAC	0.304
ATTCCCGA	0.033
TGTTTTAA	-0.0835
CGAATGGA	0.103
ACTCGTAG	0.34
AGACCGCG	0.0449
ACAATTAC	0.0827
TCTAAGAA	-0.0349
AACCCCTA	-0.276
GCCAGCGC	-0.232
ATACTTGA	-0.109
AGAGATAG	0.0862

Sequence	PBM E-score
GCCGGGCA	-0.124
ACTTTGGG	-0.263
AAGGTACG	0.434
GTGAATGA	-0.134
CAGACTGC	-0.101
AGAGCCTG	-0.193
GCAATGCA	0.0156
ACTGGTTG	-0.0604
ATCAACGG	0.0633
CAGATACC	-0.282
AGCCGATC	0.0302
CCTATCAG	-0.232
GAAAATGC	-0.00808
AGTCAGAC	-0.0851
CCACCTGG	-0.313
ATTTGTGC	-0.0226
ATGTTTCG	0.116
CGTGGTAA	-0.0242
ATCCACCG	0.0177
CCCTTGAA	-0.0885
TAAGGAGA	-0.106
ACCGCTAT	-0.0538
GACCACAA	-0.201
GTCGCTGA	-0.073
AATGGTAG	0.0904

Sequence	PBM E-score
CCAATTAC	0.0428
GTACTAAC	0.169
CATCAAGG	-0.171
ACATACAG	-0.0999
GAGACTAC	0.00043
AAGACTGA	-0.196
CCGAAAAC	0.128
ACCTACAG	-0.212
CTCCGTGA	-0.236
ATCCCGCA	-0.133
AACCGTCG	0.225
CCTATGCG	0.0825
CATCGTGC	0.164
AAAAGCGA	0.245
GTCCTTGA	-0.132
CTAACTGC	-0.21
CGCAGAGC	-0.0819
ATGCCCCC	-0.179
AACCCCCC	-0.327
GCATCTTA	0.13
ACCCTTTA	-0.0827
CAATATCG	0.0678

Reference: the supplement of paper PMC3334620
